# Laboratory results from PubChem BioAssay AID504466 (National Center for Advancing Translational Sciences (NCATS), 2011).
# Hit rate of the full screen: of about 330,000 compounds, about 4,200 (1.3%) were called active. Inconclusive results, whose numbers are uncertain, are shown with a selection of clear calls. Calls come from the whole dose curve; as a rule, active = well fitted activation curve with a large enough effect; inconclusive = small, poorly fitted or top-dose-only effect; inactive = no such curve, though single readings can be large or run the other way. Potencies beside an inconclusive call are fits to weak or partial responses and may not hold up.
# Test: qHTS screen for small molecules that induce genotoxicity in human embryonic kidney (HEK293T) cells expressing luciferase-tagged ELG1; note: nearly all actives have a fitted effect of over 60% in size
# Details: HEK293T ELG1-luciferase reporter, luminescence, 16 h; series mostly up to 46 µM
# Outline: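 Step 1: seed 2,000 HEK293T ELG1-luciferase cells per well. Step 2: add compound or DMSO, incubate 16 hr at 37 °C. Step 3: ONE-Glo, 30 min at room temperature, read luminescence.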
# Potency is the fitted concentration of half-maximal effect; tags give direction and shape of the fitted curve.
row,SMILES,Potency
1,Cc1ccc(C(=O)Nc2nc3ccccc3n2CCN2CCCC2)cc1,active: 4.61 µM
2,COc1ccc(OC(=O)Nc2ccccc2)cc1,"inconclusive: 29.1 µM [activator, single point]"
3,O=C(c1ccc(CNS(=O)(=O)c2ccccc2)cc1)N1CCC2(CC1)OCCO2,"inconclusive: 8.2 µM [activator, partial curve]"
4,O=C1NC(=O)N(c2ccccc2)C(=O)/C1=C/C=C/c1ccco1,inactive
5,CN1C(=O)C(=Cc2ccc(OCC(=O)Nc3ccccc3)cc2)C(=O)N(C)C1=O,"inconclusive: 29.1 µM [activator, single point]"
6,CN(C)C(=O)Oc1ccc2c(c1)O/C(=C\c1ccccc1)C2=O,active: 20.6 µM
7,CC(=O)c1ccc(OC(=O)N(C)c2ccccc2)cc1,"inconclusive: 18.3 µM [activator, partial curve]"
8,COc1ccc(-c2cc(=NCC(=O)O)c3ccccc3o2)cc1,"inconclusive: 9.2 µM [activator, partial curve]"
9,COc1ccc(-n2nc(C(=O)NCC(=O)N3CCC4(CC3)OCCO4)c3ccccc3c2=O)cc1Cl,inactive
10,CN1C(=O)C(=Cc2c(OCc3cnc(Cl)s3)ccc3ccccc23)C(=O)N(C)C1=O,"inconclusive: 14.6 µM [activator, partial curve, poor fit]"
11,O=C(O)CCn1cc(C=C2C(=O)NC(=S)NC2=O)c(-c2cccc(Cl)c2)n1,inactive
12,CC(C)c1c(CN(C)C(C)Cc2ccccc2)n(C)n(-c2ccccc2)c1=O (stereo not given),"inconclusive: 29.1 µM [activator, single point]"
13,COc1ccc2nc(NC3=NCCN3)sc2c1,active: 18.4 µM
14,CC1C(OC(=O)CCC(=O)NC(C)(C)CO)O[C@H]2OC3(C)CC[C@H]4[C@H](C)CCC1C24OO3 (stereo not given in full),inactive
15,Nc1ccccc1C(=O)OCC(=O)c1ccc2c(c1)OCCO2,"inconclusive: 18.3 µM [activator, partial curve, poor fit]"
16,CCCCCCOC(=O)c1ccccc1N,"inconclusive: 11.2 µM [activator, partial curve]"
17,COc1cccc(OCc2cc(C(=O)N3C[C@H]4C[C@@H](C3)c3cccc(=O)n3C4)no2)c1,active: 18.3 µM
18,COc1ccc(C(=O)N2CCC3(CC2)OCCO3)cc1,inactive
19,O=c1c2ccccc2c(C=Nc2ccc(O)cc2)c(O)n1Cc1ccccc1,"inconclusive: 18.3 µM [activator, single point]"
20,COc1ccc(C(=O)C(C)(C)NO)cc1,inactive
21,Cc1ccc2nc3c(cc2c1)CC1(C(=O)N(C)C(=O)N(C)C1=O)C1CCCCN31 (stereo not given),"inconclusive: 16.4 µM [activator, single point]"
22,CC/C(=N\Nc1ccccc1)c1c(O)[nH]c(=O)[nH]c1=O,inactive
23,Cc1ccc(C(C)(C)NC(=O)C2CCC(=O)N(C3CCCCCC3)C2)cc1 (stereo not given),"inconclusive: 16.4 µM [activator, partial curve]"

row,SMILES,Potency
1,CCn1c(=O)cc(SCC(=O)N2CCC3(CC2)OCCO3)c2ccccc21,"inconclusive: 16.4 µM [activator, partial curve, poor fit]"
2,N=C1c2ccccc2CN1CC(=O)c1ccccc1,"inconclusive: 3.26 µM [activator, partial curve]"
3,CN(C)c1ccc(/C=C2/C(=N\O)C3CCN2CC3)cc1,"inconclusive: 18.3 µM [activator, partial curve]"
4,Cc1ccc(C(=O)COC(=O)Cc2ccccc2)cc1,"inconclusive: 16.4 µM [activator, partial curve, poor fit]"
5,C=C1C(=O)O[C@@H]2C[C@@H](C)[C@@H]3C4OC4C(=O)[C@@]3(C)[C@@H](O)[C@H]12 (stereo not given in full),"inconclusive: 4.11 µM [activator, single point]"
6,COc1ccc(N2C(=O)/C(=C/c3cccs3)C(=O)NC2=S)cc1,"inconclusive: 16.4 µM [activator, single point]"
7,CCOC(=O)Cn1cc([N+](=O)[O-])nc1[N+](=O)[O-],inactive
8,CCc1ccccc1N1C(=O)/C(=C/c2ccc(N3CCN(C)CC3)o2)C(=O)NC1=S,"inconclusive: 20.6 µM [activator, partial curve, poor fit]"
9,O=C(c1c[nH]c2ccc(S(=O)(=O)N3CCOCC3)cc2c1=O)N1CCC2(CC1)OCCO2,"inconclusive: 0.0046 µM [activator, full curve, poor fit]"
10,Cc1[nH]c2c(Cl)cccc2c1CCN,"inconclusive: 16.4 µM [activator, partial curve, poor fit]"
11,O=c1oc2ccccc2n1CCCOc1ccccc1,active: 18.4 µM
12,C#C[C@]1(O)CC[C@H]2[C@@H]3CCC4=CC(=O)CC[C@]4(C)[C@H]3CC[C@@]21C,inactive
13,Cc1ccc(Cn2nc(C(=O)Nc3ccc(Br)cc3)cc2C)cc1,active: 20.6 µM
14,COc1ccc(-n2nc(C(=O)NCC(=O)N3CCC4(CC3)OCCO4)c3ccccc3c2=O)cc1OC,inactive
15,O=C1c2ccccc2-c2c1nc1c([n+]2[O-])CCCC1,"inconclusive: 18.4 µM [activator, partial curve, poor fit]"
16,CN1C(=O)C(=Cc2ccc(N3CCCCCC3)o2)C(=O)N(C)C1=S,"inconclusive: 20.6 µM [activator, single point]"
17,CCCNc1nc2c(c(=O)[nH]c(=O)n2C)n1Cc1ccc(F)cc1,"inconclusive: 18.4 µM [activator, single point]"
18,CCOc1ccc(-c2cc(C)[n+](CCN3CCOCC3)c(-c3ccc(OCC)cc3)c2)cc1,inactive
19,O=c1[nH]c(=O)n(CCc2ccc(F)cc2)c(O)c1C=NCc1ccc2c(c1)OCO2,"inconclusive: 20.6 µM [activator, single point]"
20,C=CCn1c(=O)c(C=Nc2c(OC)cccc2[N+](=O)[O-])c(O)n(CCCC)c1=O,inactive
21,CCCC[N+]12CCC(CC1)C(C(O)(c1ccccc1)c1ccccc1)C2 (stereo not given),inactive
22,CCCCSc1nc2c(cnn2-c2ccccc2)c(=O)n1N,"inconclusive: 2.31 µM [activator, full curve]"
